Measured values reported in PubChem BioAssay AID1466 (National Center for Advancing Translational Sciences (NCATS), 2008).
Among all 200,000 compounds or so, about 10 (0.005%) were called active. Inconclusive results, whose numbers are uncertain, are shown with a selection of clear calls. Calls come from the whole dose curve; as a rule, active = well fitted inhibition curve with a large enough effect; inconclusive = small, poorly fitted or top-dose-only effect, or effect the other way, or another doubt; inactive = no such curve, though single readings can be large or run the other way. Potencies of inconclusive entries are doubtful fits and often do not repeat.

molecular target: Lysosomal alpha-glucosidase (Homo sapiens) (UniProt P10253); assay: qHTS Assay for Inhibitors of Human alpha-Glucosidase as a Potential Chaperone Treatment of Pompe Disease; details: purified human GAA, 4-MU-alpha-glucoside fluorescence; activity change, negative = inhibition: at 76.9 µM (top of the series) unless noted;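 for activity change, negative = inhibition: plate controls were uninhibited enzyme wells for no effect and no-enzyme background for full effect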
Procedure, shortened: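 Endpoint fluorogenic read: 20 min room-temperature reaction of 4 nM human alpha-glucosidase with 400 uM 4-methylumbelliferyl-alpha-D-pyranoside, pH 5.0, quenched with 1M NaOH/1M glycine pH 10. AC50 from Hill modeling.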
Potency is the fitted concentration of half-maximal effect; tags give direction and shape of the fitted curve.

Activity change, negative = inhibition, inconclusive:
COc1ccc(OCC2CCCN(Cc3nc(CC4CC4)no3)C2)cc1 (stereo not given) 9.6% [activator]
c1ccc(-c2noc(CN3CCOCC3)n2)cc1 15.1% [activator]
CS(=O)(=O)c1ncc(Cl)c(C(=O)Nc2ccc(N3CCOCC3)cc2)n1 -16.6% [inhibitor]
Cc1c(C(=O)NCCN2CCOCC2)oc2ccc(S(=O)(=O)N3CCCCCC3)cc12 -16.1% [inhibitor]
CCOc1ccc(N2C(=O)CC(Sc3n[nH]c(-c4ccccc4)n3)C2=O)cc1 (stereo not given) 16.4% [activator]
Fc1c(F)c(F)c(N/N=C/c2c[nH]c3ccccc23)c(F)c1F -15.4% [inhibitor]
CCOc1ccc(NC(=O)Nc2ccccc2C(N)=O)cc1 16.6% [activator]
CN(c1ccc(C(=O)NCCSCc2ccc(Cl)cc2)cc1)S(=O)(=O)c1ccccc1 18.5% [activator]
O=C(Cc1cccc2ccccc12)N/N=C/c1ccc(O)c([N+](=O)[O-])c1 2.08% [activator]
Cc1c(C)n(CCC(=O)O)c2ccccc12 18% [activator]
C/C(=N\N=C(N)N)c1cc(Cl)ccc1Cl 18.4% [activator]
Cc1ccc(C(C#N)c2ccc(C(=O)c3ccc(F)cc3)cc2)cc1 (stereo not given) -16.9% [inhibitor]
Cc1ccc2c(C)c(C(=O)NCc3ccc(S(N)(=O)=O)cc3)oc2c1 11.9% [activator]
CC(=O)OC(C)CS(=O)(=O)c1ccccc1 (stereo not given) 15.1% [activator]
O=C1CC(N2CCN(C(c3ccccc3)c3ccccc3)CC2)C(=O)N1 (stereo not given) -15.3% [inhibitor]
Cc1cc(NC(=O)c2ccc3c(c2)OCO3)ccc1NC(=O)c1ccco1 -16.5% [inhibitor]
CC(=O)N1CCCN(Cc2cn(-c3cc(C)ccc3C)nc2-c2ccccc2)CC1 4.71% [activator]
Cc1ccccc1N1C(=O)C(Oc2ccc(Cl)cc2)C1CNC(C)(C)C (stereo not given) -16.7% [inhibitor]
O=C(CCN1C(=O)C2CCCCC2C1=O)Nc1nc(-c2ccccc2)cs1 (stereo not given) 16.1% [activator] [at 15.4 µM]
O=C(COC(=O)c1cccnc1)Nc1ccc2c(c1)OCO2 15.3% [activator]
CCOC(=O)C1=C(C)OC(N)=C(C#N)C1c1ccccc1 (stereo not given) 20.9% [activator]
COC(=O)c1[nH]c(C)c(/C(O)=C2\C(=O)C(=O)N(CCN(C)C)C2c2ccc(OC)cc2)c1C (stereo not given) -15.5% [inhibitor]

Potency, inconclusive:
COc1ccc(Cc2nc3ccc(S(=O)(=O)N4CCOCC4)cc3[nH]2)cc1 6.31 µM [inhibitor, single point]
CCOc1ccc(C(=O)Nc2ccc(S(=O)(=O)N3CCOCC3)cc2)cc1OCC 0.178 µM [inhibitor, full curve, poor fit]
CCOC(=O)CCSc1nc(C)c2cc(OC)ccc2n1 35.5 µM [activator, partial curve]
COc1cc2nc(C3CCC3)n(NC(=O)C(OC(C)=O)c3ccccc3)c(=O)c2cc1OC (stereo not given) 44.7 µM [inhibitor, single point]
COc1ccc(/C=N/n2c(N)nc(-c3ccccc3)c2-c2ccccc2)cc1 56.2 µM [inhibitor, single point]
Cc1ccc(C)n1Cc1ccc(C(=O)O)cc1 25.1 µM [inhibitor, partial curve, poor fit]
COC(=O)c1nnn(CC(=O)NC(=O)Nc2cccc(C)c2C)c1C(=O)OC 11.2 µM [inhibitor, partial curve, poor fit]
CCCCOc1ccccc1C1C(C(=O)OC)=CN(CC)C=C1C(=O)OC 35.5 µM [activator, partial curve]
C=CCn1c(=NC(=O)c2sc3ccccc3c2Cl)sc2cc(S(N)(=O)=O)ccc21 20 µM [activator, partial curve]
CCCCc1cc(=O)oc2cc(O)ccc12 35.5 µM [activator, partial curve]
Cc1ccc(NC(=O)COC(=O)C2CC2C)c(S(=O)(=O)N2CCCCC2)c1 (stereo not given) 0.178 µM [inhibitor, full curve, poor fit]
N#Cc1c(N)c(C#N)c(-c2ccc3c(c2)OCO3)c2c1CCCC2 11.2 µM [activator, full curve]
N#CCC(=O)Nc1ccc(C(=O)OCC(=O)Nc2ccccc2-c2ccccc2)cc1 50.1 µM [inhibitor, single point]
CC(C)c1nc(C#N)c(N2CCOCC2)o1 7.08 µM [inhibitor, single point]
CCOC(=O)N1CCN(C(=O)c2cccn3c(=O)c4cc(Br)ccc4nc23)CC1 56.2 µM [activator, single point]
CCC(=O)Nc1cccc(Br)c1 56.2 µM [inhibitor, partial curve, poor fit]
COC(=O)c1c(NC(=O)C2CC2)sc2c1CCN(C(C)=O)C2 50.1 µM [inhibitor, partial curve, poor fit]
Cc1ccc(C(=O)Nc2ncnc3sc4c(c23)CCCCC4)cc1 50.1 µM [inhibitor, single point]
CCNc1nc2nc3ccc(C)cn3c(=O)c2cc1C(=O)NCC1CCCO1 (stereo not given) 35.5 µM [activator, partial curve]
O=C(O)Cc1ccc(-c2ccccc2)cc1 12.6 µM [inhibitor, single point]
COc1cccc(OC)c1C(=O)NC(=S)Nc1ccc2c(c1)C(=O)N(C)C2=O 5.62 µM [inhibitor, full curve]
COc1cc(Cl)c(C)cc1NC(=O)CSc1nnc(-c2ccco2)n1CC(C)C 0.398 µM [inhibitor, full curve, poor fit]
COc1ccc(-n2nc3c(c2NC(=O)c2c(-c4ccccc4Cl)noc2C)CS(=O)(=O)C3)cc1 56.2 µM [inhibitor, single point]
CSc1nc2n(n1)C(C)C1=C(CCCC1=O)N2 (stereo not given) 31.6 µM [activator, single point]
C/C(=N\NC(=O)CCc1ccc(S(=O)(=O)N2CCOCC2)cc1)c1ccccc1Cl 25.1 µM [inhibitor, single point]
Cc1noc(/C=C/c2ccco2)c1S(=O)(=O)N1CCC(C(=O)N2CCc3ccccc32)CC1 0.891 µM [inhibitor, full curve, poor fit]
CC(N=C1CC(C)(C)CC(=O)/C1=C(/O)CCCN1C(=O)c2ccccc2C1=O)C(=O)O (stereo not given) 11.2 µM [inhibitor, single point]
COc1ccc(/C=N/n2c(-c3ccco3)nc3ccccc3c2=O)cc1 11.2 µM [inhibitor, single point]
CC(C)Cn1c(SC(C)C(=O)Nc2ccc(N3CCOCC3)cc2)nc2ccccc21 (stereo not given) 50.1 µM [inhibitor, single point]
COC(=O)Cn1c(=NC(=O)c2ccc(OC)cc2)sc2cc(OC)ccc21 35.5 µM [activator, partial curve]
COc1ccccc1CC(=O)Nc1cc(Cl)ccc1O 44.7 µM [inhibitor, single point]
O=S(=O)(CC(O)COc1ccccc1Cl)c1ccccc1 (stereo not given) 11.2 µM [inhibitor, single point]
Cc1ccc(Nc2c(-c3ccco3)nc3nc(C)cc(C)n23)cc1 25.1 µM [inhibitor, single point]
O=c1c2ccccc2nc(-c2ccoc2)n1CCc1ccccc1 0.631 µM [inhibitor, full curve]
COc1ccc(/C=N/NC(=O)c2ccco2)cc1Cn1nc(C)cc1C 3.98 µM [inhibitor, full curve]
CCOC(=O)C1=C(C)NC2=C(C(=O)CCC2)C1c1cn(Cc2ccc(Cl)cc2Cl)nc1-c1ccccc1 (stereo not given) 31.6 µM [activator, partial curve]
CCn1c(SCC(=O)Nc2nc3ccccc3s2)nc2c(c1=O)SC(C)C2 (stereo not given) 56.2 µM [inhibitor, single point]
Cc1cc(Cl)c(OCCOCCN2CCCC(C)C2)c(Br)c1 (stereo not given) 50.1 µM [inhibitor, single point]
Cc1ccccc1NC(=O)c1cccc(C(F)(F)F)c1 50.1 µM [inhibitor, single point]
FC(F)(F)c1nc(=S)c2ccccc2[nH]1 56.2 µM [inhibitor, single point]
CC(=O)c1c(C)[nH]c(C(=O)OCC(=O)N2CCN(S(=O)(=O)c3ccc(C)cc3C)CC2)c1C 15.8 µM [inhibitor, partial curve]
O=C1CCCC2=C1C(c1ccc(Cl)cc1)C1C(=O)c3ccccc3C1=N2 (stereo not given) 39.8 µM [inhibitor, single point]
COC(=O)Cn1c(=NC(=O)c2ccc(S(=O)(=O)N3CCc4ccccc4C3)cc2)sc2cc(OC)ccc21 44.7 µM [activator, single point]
O=[N+]([O-])c1ccc(OCC(O)CN(CCO)CCO)cc1 (stereo not given) 6.31 µM [inhibitor, single point]
Cc1c(-c2ccccc2)c(P(=O)(N2CCOCC2)N2CCOCC2)c2ccccn12 35.5 µM [activator, single point]

Potency, inactive:
CN1CCN(NC(=O)c2cn(-c3ccccc3)nc2-c2cccc(Br)c2)CC1
O=[N+]([O-])c1cc(CN2CCCC2)c2cccnc2c1O
O=C(CN1CCN(c2ccc(O)cc2)CC1)Nc1cc([N+](=O)[O-])ccc1Cl
COc1ccc(S(=O)(=O)N2CCCN(S(=O)(=O)c3ccc(OC)cc3C)CC2)c(C)c1
FC(F)(F)c1ccc2c(c1)NCC1CCCN21 (stereo not given)
O=c1c(Cl)c(Cl)cnn1Cc1ccc(F)cc1
Cc1c(NC(C)c2cc(Cl)ccc2O)c(=O)n(-c2ccccc2)n1C (stereo not given)
CN(C)c1ccc(N2C(=O)CC(Nc3ccc(N4CCOCC4)cc3)C2=O)cc1 (stereo not given)
